# Results reported in article PMC6919601, “Identification of Plasmodium dipeptidyl aminopeptidase allosteric inhibitors by high throughput screening” (PLoS ONE, 2019).
# Values joined by “and” are separate entries in the source; they are usually repeats but may differ in a detail not shown here. Equal entries are not always repeated. Among all 110,000 compounds or so, about 230 (0.21%) showed an effect of 50% or more. Some of the results follow.
# Target: DPAP1 (Plasmodium falciparum, UniProt Q8IIJ9)
# Test: primary screen, percent inhibition; read by cleavage of a fluorogenic dipeptide substrate; higher = more effect of the substance
# Parameters: species or system P. falciparum D10 trophozoite lysates; single well
# 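Note: 30 min substrate incubation versus DMSO and 10 µM JCP410 controls.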
# Sequence of DPAP1 (Q8IIJ9 whole entry, looked up): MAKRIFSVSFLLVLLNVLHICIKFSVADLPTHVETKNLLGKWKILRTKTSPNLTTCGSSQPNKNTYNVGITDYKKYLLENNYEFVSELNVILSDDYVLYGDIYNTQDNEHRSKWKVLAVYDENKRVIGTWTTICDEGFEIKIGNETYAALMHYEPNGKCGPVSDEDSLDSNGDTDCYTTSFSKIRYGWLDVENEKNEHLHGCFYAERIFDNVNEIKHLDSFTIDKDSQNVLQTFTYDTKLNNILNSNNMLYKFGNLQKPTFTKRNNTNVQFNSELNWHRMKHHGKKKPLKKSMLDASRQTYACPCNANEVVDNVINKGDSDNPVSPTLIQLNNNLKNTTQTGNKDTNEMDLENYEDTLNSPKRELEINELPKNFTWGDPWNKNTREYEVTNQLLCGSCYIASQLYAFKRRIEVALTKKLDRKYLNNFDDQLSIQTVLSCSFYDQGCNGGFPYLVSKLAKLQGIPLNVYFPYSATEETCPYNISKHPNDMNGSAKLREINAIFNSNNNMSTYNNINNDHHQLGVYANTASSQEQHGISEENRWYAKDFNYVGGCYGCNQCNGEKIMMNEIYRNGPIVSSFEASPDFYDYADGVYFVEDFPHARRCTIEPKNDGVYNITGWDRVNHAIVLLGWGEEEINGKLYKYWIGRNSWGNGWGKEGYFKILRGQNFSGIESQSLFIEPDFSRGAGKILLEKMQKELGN
row,Structure (SMILES),% Inhibition @ 10 uM
1,O=C(Nc1ccc2c(c1)OCCO2)C1CC2CCC1C2 (stereo not shown),-4.21%
2,CCCCCCNC(=O)c1cc(OC)cc(OC)c1,2.23%
3,Cc1ccc(C)c(S(=O)(=O)NCC(=O)Nc2nsc(-c3ccccc3)n2)c1,-1.27%
4,O=C(Cn1cc(S(=O)(=O)Cc2ccccc2F)c2ccccc21)NCC1CCCO1 (stereo not shown),-5.46%
5,CCCC1Cc2nc(Cl)c(C#N)cc2CO1 (stereo not shown),1.32%
6,Cc1ccc(NS(=O)(=O)c2ccc(C3CCCCC3)cc2)cc1,-1.77%
7,O=C(NCc1ccc(F)cc1)c1nnc(Cc2ccc(Cl)cc2)o1,-5.29%
8,Cc1ccc2onc(CNC(=O)NC(C)c3ccccc3)c2c1 (stereo not shown),8.23%
9,COc1cc(C2CC3CC2C(C)C3(C)C)ccc1O (stereo not shown),2.94%
10,C/C(=N\CCN1CCN(C(=O)c2ccccc2)CC1)C1=C(O)CC(C)(C)CC1=O,-0.522%
11,O=S(=O)(/N=C(/Nc1ccccn1)c1ccccc1)c1ccc(Cl)cc1,-4.13%
12,Cc1cc(OCC(=O)NCc2ccccc2)ccc1Br,2.44%
13,C=CCOC(=O)C1=C(C)N=C2CC(C)(C)CC(O)=C2C1c1cccc(OC)c1OC (stereo not shown),16.8%
14,CC1=NN(c2nc(-c3ccccc3)cs2)C(=O)/C1=C/c1ccc(C)s1,-4.51%
15,CCCO/C(O)=C1\C(C)=NC2=C(C(=O)CC(C)(C)C2)C1c1ccc(OC)c(OC)c1 (stereo not shown),-1.03%
16,O=C(Nc1cc(-c2cccc(Cl)c2)no1)c1cc2ccc3cccnc3c2[nH]1,2.94%
17,N#Cc1cn(CC(=O)NCCc2c[nH]c3ccccc23)c2ccccc12,1.31%
18,COC(=O)C1=C(N)Oc2cc(C)oc(=O)c2C1c1cccnc1 (stereo not shown),3.93%
19,COc1ccccc1NC(=O)Nc1ccc2ccccc2c1,-2.51%
20,Fc1ccc(-c2csc(Nc3cccc4ccccc34)n2)cc1,1.08%
21,COc1cc(C2C(C#N)=C(N)OC3=C2C(=O)CCC3)ccc1OCc1cccc(C(F)(F)F)c1 (stereo not shown),-2.78%
22,CC1CCC(NC(=O)C2CCN(c3cnccn3)CC2)CC1 (stereo not shown),4%

row,Structure (SMILES),% Inhibition @ 10 uM
1,COc1ccc(/C=C2/C(=N)N3OC(C)=CC3=NC2=O)cc1,5.21%
2,Nc1ccc2oc3ccc(N)cc3c(=O)c2c1,2.51%
3,Oc1ccc(N2CCOCC2)nn1,0.708%
4,COc1cc(C(=O)Nc2ccc(S(=O)(=O)N3CCC(C)CC3)cc2)cc(OC)c1OC,-2.19%
5,CC(=O)c1ccc(N2CCN(C(=O)c3ccccc3)CC2)c(F)c1,-0.116%
6,COc1ccc(OC)c(CN2C(=O)c3ccccc3C2C(=O)NC2CCCCCC2)c1 (stereo not shown),2.93%
7,CC(C)c1ccc(C2c3c(oc4ccccc4c3=O)C(=O)N2c2nncs2)cc1 (stereo not shown),-5%
8,CC(C)C[C@H](NC(=O)c1ccc(-c2ccccc2)cc1)C(=O)NCC#N,14.7%
9,O=C(CN1C(=O)c2ccccc2S1(=O)=O)Nc1sc2c(c1C(=O)O)CCCC2,-1.82%
10,COc1ccc(NC(=O)c2sc3nc(C)cc(C)c3c2N)cc1,1.75%
11,COc1cccc(Oc2nc(C)nc3sc4c(c23)CCCC4)c1,3.82%
12,O=C1c2cc(S(=O)(=O)NCCO)ccc2-c2ccc(S(=O)(=O)NCCO)cc21,-2.41%
13,CC(C)Oc1ccc(C(=O)N(Cc2ccccc2)c2ccccn2)cc1,3.62%
14,CCc1nnc2sc(NC(=O)c3ccc(OC)c(OC)c3)nn12,9.28%
15,Cc1cccc(/N=C/c2c(C)nn(-c3cccc(C)c3)c2O)c1,2.51%
16,CCSC1=C(C#N)C(c2ccccc2)C(c2ccccc2)CN1 (stereo not shown),2.01%
17,COc1ccc(OCC(=O)Nc2cc(OC)ccc2OC)cc1,-5.27%
18,O=C(CN1CCCCC1)N1CCn2c3c(c4cc(C5CCCCC5)ccc42)CCCC31 (stereo not shown),-1.64%
19,CC1CC(C)CN(C(=O)CCNS(=O)(=O)c2cc(Br)cnc2N)C1 (stereo not shown),0.229%
20,Cc1cccc(NC(=O)c2cc3c(Cl)nc4ccccc4c3s2)n1,12.3%
21,COc1cccc(C2=CC(c3ccccc3Cl)n3nnnc3N2)c1 (stereo not shown),-7.08%
22,OCCN1CCN(Cc2ccc(-c3ccccc3)cc2)CC1,0.526%

row,Structure (SMILES),% Inhibition @ 10 uM
1,CC(=O)N(C)c1ccc(NC(=O)COc2ccc(Cl)cc2C)cc1,1.62%
2,CC(=O)N1CCC(NCc2ccc3c(c2)OCO3)CC1,-0.292%
3,Cc1nc2ccn(Cc3cccnc3)c(=O)c2cc1C(=O)N1CCN(c2ncccn2)CC1,0.212%
4,O=C(CN1C2=NCCCN2c2ccccc21)c1ccccc1,2.64% and -4.67%
5,CCC(C)N(CCNC(=O)C1CCCN(c2nc(-c3ccc(OC)cc3)no2)C1)Cc1ccco1 (stereo not shown),-6.56%
6,Cc1cccc(C(=O)Nc2ccc(S(=O)(=O)N3CCCCCC3)cc2)c1,-0.992%
7,COc1ccc2[nH]cc(CCNC(=O)C(C)c3ccc(CC(C)C)cc3)c2c1 (stereo not shown),-1.76%
8,Cc1ccc(-c2csc3ncnc(-n4nc(C)cc4N)c23)cc1,-7.14%
9,COc1ccc(OC)c(NC(=O)CN(c2cccc(C(F)(F)F)c2)S(C)(=O)=O)c1,-9.65%
10,CSc1ccc(C(=O)N[C@@H](CC2CCCCC2)C(=O)NCC#N)s1,-3.49%
11,OCCN(CCO)Cc1ccc(F)c(F)c1,-5.59%
12,CC(C)(C)c1ccc(S(=O)(=O)N2CCN(c3ccccc3)CC2)cc1,3.24%
13,Cc1ccc(-c2nc3cc(NC(=O)c4ccc5c(c4)OCCO5)ccc3o2)cc1,-0.115%
14,Clc1ccc(CSc2nc3ccncc3[nH]2)cc1,0.0882%
15,O=C(c1ccco1)n1nc(-c2ccco2)nc1SCc1ccccc1,-2.75%
16,O=c1/c(=C/c2ccc(-c3ccc(Br)cc3)o2)sc2nc3ccccc3n12,-3.63%
17,Cc1ccccc1N1C(=O)/C(=C\c2ccc(N(C)C)cc2)C(=O)NC1=S,4.15%
18,Cc1ccc(-n2c(C)cc(C(=O)CN3CCCCC3)c2C)cc1,15.9%
19,COc1ccc(C2CC(=O)C(/C=N/c3ccc(OC)c(OC)c3)=C(O)C2)cc1 (stereo not shown),-4.75%
20,O=S(=O)(NCc1ccc2c(c1)OCO2)c1ccc(Br)cc1,-14.4%
